Results reported in the antibiotic and cytotoxicity screens of Wong et al. (2023).
This is one part of the list.

system: HSkMC (human skeletal muscle cells); assay: cytotoxicity call (relative viability < 0.9); settings: 10 µM

| SMILES | cytotoxicity call |
| --- | --- |
| CO[C@H]1O[C@H](CO)[C@@H](OC(=O)c2ccc(Br)cc2)[C@@H]2OC(=O)[C@@H](Cc3ccccc3)C/C=C/C[C@H](Cc3ccccc3)C(=O)O[C@@H]12 | inactive |
| C[C@H](O)C#Cc1ccc2c(c1)O[C@H](CN(C)C)[C@@H](C)CN([C@H](C)CO)S2(=O)=O | inactive |
| C[C@H]1CN([C@@H](C)CO)S(=O)(=O)c2ccc(C#Cc3ccccc3)cc2O[C@H]1CN(C)C(=O)CN(C)C | inactive |
| C[C@H](CO)N1C[C@H](C)[C@H](CN(C)S(=O)(=O)c2ccc(Cl)cc2)OCCCC[C@H](C)Oc2ccc(NS(=O)(=O)c3ccc(Cl)cc3)cc2C1=O | inactive |
| C[C@H]1CC=CC[C@@H](c2cccc(Cl)c2)NC(=O)[C@H](Cc2ccccc2)N(C)C(=O)c2ccccc2O1 | inactive |
| C[C@@H]1CCCCO[C@H](CN(C)Cc2ccccc2)[C@H](C)CN([C@@H](C)CO)C(=O)c2cc(NS(=O)(=O)c3ccc(Cl)cc3)ccc2O1 | inactive |
| C[C@H](CO)N1C[C@H](C)[C@H](CN(C)CC2CCCCC2)Oc2ccc(NC(=O)Nc3ccc(C(F)(F)F)cc3)cc2C1=O | active |
| CN(C)CCCNC(=O)C[C@H]1C=C[C@@H](NC(=O)Cc2cccnc2)[C@H](CO)O1 | inactive |
| CCCCNc1ccc(C(=O)OCCN(C)C)cc1.Cl | inactive |
| C=CCN(C(=O)[C@H]1N(CCOCCO)C(=O)[C@H]2[C@H](C(=O)O)[C@@H]3C=C[C@@]21O3)C(C)(C)C | inactive |
| C[C@@H]1CN([C@H](C)CO)S(=O)(=O)c2ccc(C#Cc3ccncc3)cc2O[C@H]1CN(C)C(=O)C1CCCCC1 | inactive |
